Experimental data reported in patent publication US9833444B2 (priority 2013, dated 2017).

Target: SMases of B. cereus (Bacillus cereus, UniProt P11889)
Conditions: compound 40 μM
Method: Thus, knowing the importance of PLCs in infections by some bacteria, compounds 5 and 6 (40 μM) were tested in face of the hydrolytic activity of SMases of B. cereus and Stahylococcus aureus.

Compound	reduction of hydrolytic activity of SMase of B. cereus
Cc1[nH]c2ccccc2c1/C=N/NS(=O)(=O)c1ccc(Br)cc1 [Compound 5, 4-bromo-N-[(E)-(2-methyl-1H-indol-3-yl)methyleneamino]benzenosulfonamide]	efficiently reduced
Cc1cc(OS(=O)(=O)c2ccc(Cl)cc2)cc2c1C(=O)C(=Cc1cccnc1)O2 [Compound 6, 4-methyl-3-oxo-2-(3-pyridylmethylene)benzo[3,4-b]furan-6-yl-4-chlorobenzenesulphonate]	efficiently reduced
